From PubChem BioAssay AID1508623 (National Center for Advancing Translational Sciences (NCATS), 2021)
Screen size: about 48,000 compounds; about 450 (0.94%) were called active. Another 19% or so got no clear call; they are omitted. Calls follow the shape of the dose curve; as a rule, active = well fitted inhibition curve with a large enough effect; inconclusive = small, poorly fitted or top-dose-only effect; inactive = no such curve, though single readings can be large or run the other way. Some of the results follow.

Assay: Primary qHTS for Identification of Small Molecule Inhibitors of Huntingtin Promoter Activity; also: nearly all actives have a fitted effect of over 50% in size
Details: HEK293 HTT promoter firefly luciferase reporter (activity 0% = vehicle and -100% = no light), 24 h; series mostly up to 57.5 µM; activity change, negative = inhibition: at the top concentration
Outline: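 Luminescence was read after Dual-Glo reagent and a 10 min room-temperature incubation. Values were normalized to vehicle (0% activity) and zero RLU (-100% activity). Reporter HEK293 cells had been exposed to compounds (up to 57.5 uM final) for 24 h.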
Potency is read from the fitted curve at half-maximal effect.

Row | SMILES | activity change, negative = inhibition | Potency
1 | COc1ccc(-c2nnc(SCC(=O)N(C)C3CCCCC3)o2)cc1OC | inactive: 0.116% | 
2 | O=c1oc2c3c(ccc2c2ccccc12)OCN(Cc1ccccc1Cl)C3 | inactive: -7.57% | 
3 | CN(Cc1ccccc1)c1ncnc2c1nnn2C | inactive: -13.6% | 
4 | COC(=O)c1sccc1S(=O)(=O)N(CC(=O)Nc1ccccc1F)c1ccccc1 | inactive: 9.45% | 
5 | Cc1cccc(C(=O)n2nc(-c3cccnc3)nc2NCc2ccccc2)c1 | inactive: -30.3% | 
6 | CCn1cc(C(=O)NCCCOC)c(=O)c2cc(S(=O)(=O)N3CCCC3)ccc21 | inactive: -2.92% | 
7 | Cc1ccc(C(=O)NCCc2ccc(S(N)(=O)=O)cc2)cc1-n1cnc2cccnc21 | inactive: 5.33% | 
8 | O=C(CCCCn1c(=O)c2ccccc2n(CC(=O)Nc2ccc(F)cc2F)c1=O)NCCc1ccccc1 | inactive: 4.59% | 
9 | COC(=O)c1c(NC(=O)Cc2coc3ccc(C(C)C)cc23)sc2c1CCC2 | inactive: -23.6% | 
10 | CC(C)Oc1ccc(C(=O)NCC(c2ccc(N(C)C)cc2)N2CCCC2)cc1 (stereo unspecified) | inactive: 13.6% | 
11 | CCOc1ccccc1NC(=O)CCNS(=O)(=O)c1cccc2nonc12 | inactive: -8.48% | 
12 | COc1cc(C(=O)Nc2ccc3c(c2)N(C2CCCC2)C(=O)c2ccccc2S3)cc(OC)c1OC | inactive: 3.81% | 
13 | CCOc1ccccc1NC(=O)C1CCCN1S(=O)(=O)c1ccc2c(c1)C(C)(C)C(=O)N2C (stereo unspecified) | inactive: -30.6% | 
14 | Cc1cc(NC(=O)c2ccc3c(c2)OCCO3)cc(-c2nc3ccccc3o2)c1O | inactive: -10.9% | 
15 | COc1ccc(NC(=O)N2CCOc3ccc(Cl)cc32)cc1 | inactive: 15.3% | 
16 | Nc1c(C(=O)Nc2ccccc2F)sc2nc3c(cc12)CCCCCC3 | inactive: 8.14% | 
17 | CCOC(=O)c1c(NC(=O)c2cc3nc(-c4ccc(Br)cc4)cc(C(F)(F)F)n3n2)sc(C(C)=O)c1C | inactive: -4.43% | 
18 | COc1ccc(Cc2nc3c4cnn(-c5ccccc5F)c4ncn3n2)cc1 | inactive: -24.3% | 
19 | CCCCNC(=O)c1cc(-c2ccc(OC)cc2)nc2n[nH]c(-c3cccc([N+](=O)[O-])c3)c12 | inactive: -25.7% | 
20 | CCc1ccc(NC(=O)CCNS(=O)(=O)c2ccc3c(c2)oc(=O)n3C)cc1 | inactive: 66% | 
21 | CCOC(=O)c1ccccc1NC(=O)CN1CCCN(Cc2cccc(Cl)c2)S1(=O)=O | inactive: -21.8% | 

Row | SMILES | activity change, negative = inhibition | Potency
22 | CCN(CC)CCCNC(=O)c1nn(C)c2c1CSc1ccccc1-2 | inactive: -12.2% | 
23 | CCN(CC)c1ccc(C(=O)NCc2ccc3c(c2)CCN3C(=O)c2ccc(F)cc2)cc1 | inactive: -17.9% | 
24 | Cc1ccc(CNC(=O)c2ccc3c(c2)nc2n3CCOC2)cc1 | inactive: 6.07% | 
25 | Cc1ccc(-n2nc(C)c3c(C(=O)NCCc4ccccc4)cc(C)nc32)cc1 | inactive: -27.8% | 
26 | COc1ccc(C(C)=O)cc1CSc1nc(NCCc2ccccc2)c2ccccc2n1 | inactive: -0.805% | 
27 | COc1ccc(NC(=O)CCc2nc3c(C)nn(-c4ccc(C)cc4)c3n(C)c2=O)cc1 | inactive: 2.98% | 
28 | CCCS(=O)(=O)c1c(S(=O)(=O)CCC)c2cc(CC)ccn2c1C(=O)c1ccc(Cl)cc1 | inactive: -27.3% | 
29 | COc1ccc(Cl)cc1CNCCSc1nnnn1-c1ccccc1 | inactive: -1.56% | 
30 | COc1ccc(C2NC(=O)N(C)C3=C2C(=O)N(c2cccc(C(=O)O)c2)C3)cc1 (stereo unspecified) | inactive: -38.7% | 
31 | COc1ccc(S(=O)(=O)Nc2cc3c(C(=O)OC(C)C)c(C)oc3c3ccccc23)cc1 | inactive: -40.5% | 
32 | COc1ccc(CNC(=O)CN2C(=O)CCn3nc(-c4ccccc4)cc32)c(OC)c1 | inactive: -5.61% | 
33 | Cc1oc2ncn(C)c(=O)c2c1C(=O)NCc1ccc(Cl)cc1 | inactive: 14.3% | 
34 | Cn1c(Nc2ccc(Cl)cc2)cc(=O)n(C)c1=O | inactive: 7.06% | 
35 | CC1=C(C(=O)Nc2ccc(C)cc2C)C(c2ccc(O)cc2)n2nc(SCC(=O)c3ccc(C)cc3)nc2N1 (stereo unspecified) | inactive: -8.69% | 
36 | COc1ccc(-c2nn3c(=O)cc(CN4CCN(S(=O)(=O)c5ccc(C)cc5)CC4)nc3s2)cc1 | inactive: -5.3% | 
37 | Cc1cc(OCC(O)CN2CCN(c3cccc(Cl)c3)CC2)ccc1Cl (stereo unspecified) | inactive: -10.5% | 
38 | COc1ccc(C(=O)Nc2ccc(S(=O)(=O)N(Cc3ccccc3)c3ccccc3)cc2)cc1 |  | active: 5.01 µM
39 | CC(C)Cc1nn2c(=O)cc(COC(=O)c3ccccc3NC(=O)C3CCCCC3)nc2s1 | inactive: -15.3% | 
40 | Cc1ccc(S(=O)(=O)NCc2nc3cccnc3n2Cc2ccccc2Cl)c(C)c1 | inactive: -17.5% | 
41 | CCc1nnc2c(Nc3ccc(N(CC)CC)cc3C)nc3ccccc3n12 | inactive: 12% | 
42 | Cc1cc(S(=O)(=O)Nc2ccc(C(=O)O)cc2)c(C)c(S(=O)(=O)c2ccc(Cl)cc2)c1 | inactive: -12% | 

Row | SMILES | activity change, negative = inhibition | Potency
43 | COc1cccc(NS(=O)(=O)c2ccc3c(c2)N(C)C(=O)CC(=O)N3C)c1 | inactive: -7.31% | 
44 | COc1ccc(C)cc1NC(=O)c1cn(C)c(=O)c2cc(OC)c(OC)cc12 | inactive: -5.53% | 
45 | COc1ccccc1NC(=O)CN1C(=O)c2ccccc2Sc2ccc(C(=O)N3CCCC3)cc21 | inactive: -28% | 
46 | CCc1ccccc1NC(=O)N1CC(C)Sc2ccccc21 (stereo unspecified) | inactive: -7.99% | 
47 | CC(=O)c1ccccc1OCC(O)Cn1c(CO)nc2ccccc21 (stereo unspecified) | inactive: -11.2% | 
48 | CC1CN(C(=O)N2CCC(C(=O)NCc3ccco3)CC2)c2ccccc2O1 (stereo unspecified) | inactive: -0.668% | 
49 | CCCCC(F)(F)[C@@]1(O)CC[C@H]2[C@H](CC(=O)[C@@H]2CCCCCCC(=O)O)O1 | inactive: -0.921% | 
50 | CC1CCN(c2nc3ccccc3nc2C(F)(F)F)CC1 | inactive: -1.96% | 
51 | CCOc1cccc(C2c3c(oc4ccc(F)cc4c3=O)C(=O)N2c2cc(C)ccn2)c1 (stereo unspecified) | inactive: 2.22% | 
52 | Cc1cccc(CN2C(=O)c3ccccc3Sc3ccc(C(=O)NCCCN4CCOCC4)cc32)c1 | inactive: -22.7% | 
53 | O=C(Nc1nc2ccccc2n1CCOc1ccccc1Cl)c1ccccc1 | inactive: 64.3% | 
54 | COc1c(O)cc2c(c1O)[C@@H]1O[C@H](CO)[C@@H](O)[C@H](O)[C@H]1OC2=O | inactive: 2.93% | 
55 | CCN(CC)S(=O)(=O)c1nnc(NC(=O)c2ccc(C)cc2)s1 | inactive: 5.48% | 
56 | COc1ccccc1C1C(C(=O)Nc2ccccc2)=C(C)Nc2nc(-c3ccccc3)nn21 (stereo unspecified) | inactive: -14.8% | 
57 | CC(=O)N1CCc2cc(S(=O)(=O)NC(Cc3ccccc3)C(=O)Nc3cc(C)cc(C)c3)ccc21 (stereo unspecified) | inactive: -23.3% | 
58 | CC1CCCCN1CCCNC(=O)Cn1ncc2c3ccccc3n(Cc3ccccc3)c2c1=O (stereo unspecified) | inactive: 16.9% | 
59 | Cc1ccc(Cl)cc1N1CCN(C(=O)CCc2nnc3n(C)c(=O)c4ccccc4n23)CC1 | inactive: -10.6% | 
60 | CCN(Cc1ccccc1)C(=O)c1cn(-c2cccc(OC)c2)c(=O)c2ccccc12 | inactive: -12.8% | 
61 | O=C(Cn1ncc2c3ccccc3n(Cc3ccccc3)c2c1=O)NCCCN1CCCCC1 | inactive: 9.07% | 
